The whole screen tested about 52,000 compounds, of which about 1,700 (3.3%) were called active. Cut-off read from the data, not from the text of the source: active = survival mostly below about 52% (no sharp cut-off); inactive = mostly above about 56%. This is one part of the list.
test system: Wild type; assay: S. aureus survival, RN4220 and DeltatarO strains – OD600, teichoic acid synthesis inhibitors, primary screen (AID 463173); conditions: S. aureus RN4220 wild type/DeltatarO growth, OD600, 18 h, stronger effect = lower value, screened at 18.75 µg/mL (by protocol)

Structure (SMILES) | survival
COc1ccc(N(C(=O)c2ccccc2F)S(=O)(=O)c2ccc3c(c2)n(C)c(=O)n3C)cc1 | inactive: 83%
COc1ccc(CCNC(N)=S)cc1OC | inactive: 90%
Cc1ccc(C)c(CN2C(=O)c3ccccc3S(=O)c3ccc(C(=O)N4CCC(C)CC4)cc32)c1 (stereo unspecified) | inactive: 92%
CCOC(=O)c1cccc(NC(=O)c2cc(S(=O)(=O)N3CCCCCC3)cn2C)c1 | inactive: 71%
COc1ccc(CNc2oc(-c3ccc(COc4ccc(Cl)cc4)o3)nc2C#N)cc1 | inactive: 127%
CCC(C)(C)NS(=O)(=O)c1cc(-c2cc(C)no2)ccc1C | inactive: 82%
CCN1c2ccccc2-c2nc(SCC(=O)Nc3cccc(C(F)(F)F)c3)ncc2S1(=O)=O | inactive: 79%
COc1cc(O)ccc1C1CC(=O)Nc2c1c(=O)nc(SCc1ccccc1C)n2C (stereo unspecified) | inactive: 108%
COc1ccc(CNC(=O)c2c(Nc3ccc(OC)cc3OC)sc(C(=O)c3ccc(Cl)cc3)c2N)cc1 | inactive: 66%
CCOC(=O)CSc1nc2sc3c(c2c(=O)n1Cc1ccccc1)CCC(C(C)(C)C)C3 (stereo unspecified) | inactive: 90%
S=c1nc[nH]c2c1[nH]c1ccccc12 | inactive: 98%
CC(C)OCCCNC(=O)CCCn1c(=O)[nH]c2ccsc2c1=O | inactive: 70%
Cc1ccc(CNC(=O)C2CCC(CNS(=O)(=O)c3ccc4c(c3)CCCC(=O)N4)CC2)cc1 (stereo unspecified) | inactive: 71%
CC1CCCCN1C(=S)Nc1ccccc1 (stereo unspecified) | inactive: 96%
COc1ccc(CN(C(=O)c2cc3ccccc3oc2=O)C2CCS(=O)(=O)C2)cc1 (stereo unspecified) | inactive: 72%
O=C(O)CSC1=NCCCN1 | inactive: 89%
CCOc1ccc(CNC(=O)c2cc(=O)[nH]c3ccc(S(=O)(=O)N4CCCCC4)cc23)cc1 | inactive: 82%
Cc1cc(C)cc(Nc2cc(C(=O)NCCCN(Cc3ccccc3)C(C)C)c3ccccc3n2)c1 | active: -6%
C=CCn1cnc2scc(-c3ccccc3)c2c1=O | inactive: 90%

Structure (SMILES) | survival
COc1ccc(-c2nc3c4cnn(-c5ccccc5F)c4ncn3n2)cc1 | inactive: 85%
CC(=O)Nc1ccc(NS(=O)(=O)c2ccc3c(c2)CC(C)N3C(=O)C2CCC2)cc1 (stereo unspecified) | inactive: 80%
COC(=O)CC1Oc2ccc(F)cc2-n2cc(-c3ccc(Cl)cc3)nc21 (stereo unspecified) | inactive: 96%
COc1ccc(-c2cnc(N)n2CC2CCCO2)cc1 (stereo unspecified) | inactive: 102%
Cc1cccc(C)c1OCCSc1nc2ccccc2n1CC(=O)O | inactive: 67%
COc1ccc(N2CCN(S(=O)(=O)c3csc(C(N)=O)c3)CC2)cc1 | inactive: 102%
CCN(Cc1ccccc1)C(=O)Cn1c(=O)n(-c2ccc(F)c(Cl)c2)c(=O)c2sc3ccccc3c21 | inactive: 89%
Cc1ccc2cc(CN(CC3CCCO3)C(=O)C(F)(F)F)c3nnnn3c2c1C (stereo unspecified) | inactive: 115%
O=C(Nc1cccc(-c2nc3ccccc3o2)c1)c1cc([N+](=O)[O-])ccc1N1CCOCC1 | inactive: 60%
CCOC(=O)c1ccc(NC(=O)CCS(=O)(=O)c2ccc(C)cc2)cc1 | inactive: 86%
Cc1cccc(-c2nc(CCNC(=O)c3ccco3)cs2)c1 | active: -6%
COc1ccc(Cn2nnnc2C(c2ccccc2)N2CCC(C)CC2)cc1 (stereo unspecified) | inactive: 113%
COc1ccc(NC(=O)CN2CCCN(S(=O)(=O)c3ccc(Br)cc3)CC2)c(OC)c1 | inactive: 86%
Cc1ccc2oc(C(=O)Nc3ccc(S(=O)(=O)N4CCCCCC4)cc3)cc(=O)c2c1 | inactive: 79%
CCOC(=O)c1cc(C)n(CC2CCC(C(=O)Nc3ccc(OC)c(OC)c3)CC2)c1C (stereo unspecified) | inactive: 74%
COC(=O)C(C)(C)Sc1nnc2c(n1)[nH]c1c(C)cc(C)cc12 | inactive: 103%
CCc1ccc(NC(=O)c2sc(-n3nc(C)c(Cc4ccc5c(c4)OCO5)c3C)nc2C)cc1 | inactive: 82%
Cc1cc(C)cc(NS(=O)(=O)c2c(C)nc3scc(C)n3c2=O)c1 | inactive: 86%
O=C(Oc1ccccc1F)c1nc(SCc2ccccc2F)ncc1Cl | inactive: 114%

Structure (SMILES) | survival
CCOc1ccccc1NC(=O)Cn1c(=O)n(-c2ccc(C)c(C)c2)c(=O)c2oc3ccccc3c21 | inactive: 83%
COc1ccccc1NC(=O)Cn1nc2c3cc(F)ccc3n(Cc3cccc(C)c3)cc-2c1=O | active: -4%
COc1ccc(Nc2ncc3c(n2)CCN(Cc2cccc(F)c2F)C3)c(OC)c1 | inactive: 72%
Cc1ccc2nc(-c3cccc(NC(=O)CSc4ccc(Cl)cc4)c3)oc2c1 | inactive: 71%
Cc1ccc(-c2nnn(CC(=O)Nc3cccc4cccnc34)n2)o1 | inactive: 102%
CCN1CCC(N(Cc2ccc3c(c2)OCO3)C(=O)Nc2cccc(C)c2C)CC1 | inactive: 83%
CC(=O)N1CCCc2cc(S(=O)(=O)NCc3ccccc3Cl)ccc21 | inactive: 118%
CCc1ccc(Nc2nc3c(S(=O)(=O)c4ccc(C)cc4)nnn3c3ccsc23)cc1 | inactive: 91%
Cc1ccc(N(C(=O)Cn2nnc(-c3ccc(C)o3)n2)C(C(=O)NC2CCCCC2)c2ccc(F)cc2)c(C)c1 (stereo unspecified) | inactive: 100%
Cc1ccc(C)c(NC(=O)c2cc(S(=O)(=O)N3CCN(c4cccc(Cl)c4)CC3)ccc2F)c1 | inactive: 73%
CCN(Cc1ccccc1)C(=O)C1CCC(CNS(=O)(=O)c2ccc3c(c2)CCCC(=O)N3)CC1 (stereo unspecified) | inactive: 121%
CCN(C(=O)Cn1cc(S(=O)(=O)N2CCN(c3ccccc3F)CC2)c2ccccc2c1=O)c1ccc(C)c(C)c1 | inactive: 131%
Cc1ccc(NC(=O)Cn2c(=O)n(-c3ccccc3)c(=O)c3ccc(C(=O)NCc4ccc5c(c4)OCO5)cc32)cc1 | inactive: 132%
Oc1c(C(c2ccccc2Cl)N2CCC(O)CC2)sc2nc(-c3ccco3)nn12 (stereo unspecified) | inactive: 87%
O=C(Nc1ccccc1C(F)(F)F)c1noc2c1CCCC2 | inactive: 72%
Cc1ccc(S(=O)(=O)c2nnn3c2nc(N2CCCC(C)C2)c2cc(Cl)ccc23)cc1C (stereo unspecified) | inactive: 90%
O=C(COc1ccc(Cl)cc1)Nc1ccc2nc(SCC(=O)N3CCOCC3)sc2c1 | inactive: 88%
Cc1ccc(NCc2cc3cc4c(cc3n(CC(=O)Nc3ccc(F)cc3F)c2=O)OCCO4)cc1 | inactive: 82%
